From article PMC12040169 (PLOS Biology, 2025)
The list shows a part of the results.

Tested on: T1, C. trachomatis L2/434/Bu expressing GFP (CTL2-GFP)
T1 construct: L2/434/Bu GFP intracellular growth in HeLa cells
Design: species or system HeLa; C. trachomatis total inclusion area by high-content imaging, normalised to DMSO
Details: total inclusion area; 28.5 h, 10 µM; inhibitor
How it was run: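 High-content images of fixed, Hoechst-stained infected cultures supply inclusion area and count (growth) plus nuclei number (viability), complementing bulk GFP/resorufin fluorescence. MIC determination is unchanged from the primary assay.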

Row | SMILES | % of control remaining
1 | O=S(=O)(NC1CCCCC1)c1ccc(S(=O)(=O)N2CCOCC2)cc1 [CBK269618] | 88.6889
2 | CCn1c(SCC(=O)Nc2ccc(Br)cc2F)nnc1-c1ccc(OC)cc1 [CBK266172] | 133.754
3 | CC(Cc1c[nH]c2ccccc12)NC(=O)CSS(=O)(=O)O (centres unmarked) [CBK260942N] | 96.5042
4 | Cc1nnc(CSc2nnc(-c3ccc(Cl)cc3)[nH]2)o1 [CBK270241] | 91.735
5 | CC[C@H]1CCCCN1C(=O)c1sc2ncccc2c1Cl [CBK092276] | 3.627
6 | O=C(O)c1ccc(N2C(=O)/C(=C/c3c[nH]c4ccccc34)SC2=S)cc1 [CBK263085] | 114.932
7 | O=C(Cn1cccn1)N1CCc2[nH]c3ccccc3c2C1 [CBK281839] | 116.59
8 | O=C(O)C1(Oc2ccc3ccccc3c2)CCN(C2CCNCC2)CC1 [CBK306615] | 86.6551
9 | COc1ccc(-n2ncc(-c3cccnc3)n2)cn1 [CBK112827] | 74.3886
10 | C[C@H](Nc1ccc(C(F)(F)F)cc1[N+](=O)[O-])C(=O)NCCOc1ccccc1F [CBK297535] | 59.8993
11 | C=CCn1c(NCc2ccco2)nc2ccccc21 [CBK269751] | 101.22
12 | CC(NC(=O)Cc1ccc(-c2ccccc2)cc1)c1cccnc1 (centres unmarked) [CBK295147] | 102.635
13 | CCC1CN(CC(=O)NCc2ccc(OCC(N)=O)cc2)CCO1 (centres unmarked) [CBK305774] | 51.2145
14 | CCOC(=O)c1ccoc1C[N+](C)(CC)CC [CBK007022I] | 64.9656
15 | Cc1ccc(NC(=O)c2cc(N3C(=O)c4ccc(C(=O)O)cc4C3=O)ccc2N2CCCCC2)cc1 [CBK265274] | 104.862
16 | O=C(c1cc[nH]c1)N1CCCC2(CCN(C(=O)c3ccoc3)C2)C1 (centres unmarked) [CBK131629] | 78.3708
17 | O=C(CCOc1ccc(F)cc1)Nc1cnc(-c2ccc(F)cc2)c(-c2ccoc2)n1 [CBK037166] | 94.6772
18 | CCc1nn(C)cc1CNC1CCCN(c2ccc(C#N)cc2)C1=O (centres unmarked) [CBK304176] | 37.1038
19 | Cc1ccc(CN2CCC(N3C(=O)NC4(CCN(CC(C)C)CC4)C3=O)CC2)cc1C [CBK285822] | 93.8188
20 | Cc1ccccc1OCCCn1cncc1-c1cn(C)nc1C [CBK281813] | 106.8
21 | O=C(c1c[nH]c2ccccc12)C(O)C(c1ccccc1)N1CCOCC1 (centres unmarked) [CBK267802] | 103.656
22 | COc1ccc([C@@]23CC[C@@H](NC(=O)c4ccc(SC(F)(F)F)cc4)C[C@@H]2N(C)CC3)cc1OC [CBK076654T] | 98.0483
23 | CN1CCOc2cc(S(=O)(=O)Nc3cccc(-c4cnco4)c3)ccc21 [CBK067119] | 87.8861
24 | CC(=O)Nc1ccc([C@@H](O)[C@H]2COCC(=O)N2C)cc1 [CBK289059] | 138.925
25 | CC(C)NC(=O)N[C@H]1CCN2C(=O)c3cc(-c4ccc(F)cc4F)ccc3NC(=O)[C@H]12 [CBK289346] | 102.711
26 | CCN(CCO)C(=O)c1coc(COc2ccc3sc(C)nc3c2)n1 [CBK307321] | 95.773
27 | CC(=O)N(C)[C@H]1CC[C@]2(CC1)CNC(=O)c1cc(C)ccc1O2 [CBK281690] | 91.3876

Row | SMILES | % of control remaining
28 | OC(COc1ccc(OC(F)(F)F)cc1)CN1CCN(c2nc3ccc(Cl)cc3s2)CC1 (centres unmarked) [CBK074639] | 81.4011
29 | COc1ccc(C(=O)Nc2ccccc2)cc1S(=O)(=O)Nc1cccnc1 [CBK266771] | 101.901
30 | O=C(O)c1cc(NCc2ccccc2)ccc1N1CCOCC1 [CBK287099] | 105.871
31 | CS(=O)(=O)N1CCc2cc(S(=O)(=O)NCCc3c[nH]c4ccccc34)ccc21 [CBK268487] | 103.121
32 | O=C(/C=C/c1cn(C2OC(CO)C(O)C2O)c(=O)[nH]c1=O)NCCCCCCNC(=O)C(F)(F)F (centres unmarked) [CBK201231] | 147.703
33 | O=C(c1ccc2ncsc2c1)N1CCN(S(=O)(=O)c2ccc(C(F)(F)F)cc2)CC1 [CBK295285] | 94.0044
34 | O=C(O)c1ccc(NC(=O)c2cc(S(=O)(=O)N3CCCCC3)cs2)cc1 [CBK265722] | 102.126
35 | CN(C)S(=O)(=O)c1cccnc1OCC(O)CNC(C)(C)C (centres unmarked) [CBK058059] | 77.8563
36 | COCc1cc(C)nc(OCC(=O)N2CCCCC2)c1C#N [CBK270228] | 124.064
37 | CC1CN(c2cc(CNc3ncccc3Cl)ccn2)CCO1 (centres unmarked) [CBK306456] | 48.3722
38 | CCOC(=O)N1CCN(C(=O)CCC(=O)O)CC1 [CBK287075] | 110.955
39 | CCNC(=O)c1ccc(-n2cccn2)c(C#Cc2cccnc2)c1 [CBK283150] | 83.5135
40 | Cc1ccc(SCCC(=O)NC(CCC(=O)O)C(=O)O)cc1 (centres unmarked) [CBK295173] | 120.175
41 | CCOc1ccc(CN2CC3CCCN3C[C@H]2C)cc1 (some centres unmarked) [CBK285422] | 107.713
42 | COc1ccc(NC(=O)c2ccc3nsnc3c2)cc1 [CBK263160] | 78.3318
43 | O=S1(=O)CC(OS(=O)(=O)c2ccc(Cl)cc2)C(OS(=O)(=O)c2ccc(Cl)cc2)C1 (centres unmarked) [CBK262049] | 92.319
44 | CS(=O)(=O)Nc1nccnc1N1CCN(C(=O)c2ccno2)CC1 [CBK048861] | 74.591
45 | CCC(C)(C)c1ccc(S(=O)(=O)N2CCN(Cc3c(C)nn(C)c3C)CC2)cc1 [CBK062835] | 81.6856
46 | OCCNc1ncnc2c1ncn2Cc1ccccc1 [CBK287933] | 105.759
47 | Cc1nn(C)cc1-c1cncn1CC1(N(C)C)CCC(C)CC1 (centres unmarked) [CBK281799] | 109.009
48 | Cc1nc(CCNC(=O)C2CC(c3cccc(F)c3)=NO2)cs1 (centres unmarked) [CBK305798] | 57.3606
49 | Cc1noc2nc(C3CCN(C(=O)C4CC4)CC3)cc(C(F)F)c12 [CBK285306] | 121.21
50 | c1cnc(N2CCN(CC3CC3)CC2)c(OCCN2CCOCC2)n1 [CBK082909] | 104.492
51 | O=C(c1ccc[nH]1)N1CCc2ccccc21 [CBK200285] | 82.646
52 | O=C(NCc1c(F)cccc1F)c1ccc(-c2ccc(OC(F)(F)F)cc2)nc1 [CBK161007T] | 69.9285
53 | O=C(Cn1nnc2ccccc2c1=O)N1CCCC(C(F)(F)F)C1 (centres unmarked) [CBK305900] | 49.8124
54 | COc1ccc(C2(C(=O)NCCCN3CCN(C)CC3)CC2)cc1 [CBK149822] | 89.3242

Row | SMILES | % of control remaining
55 | Cc1nc(C2(O)CCCN(C3CCCC3)CC2)sc1COc1ccc(Cl)cc1 (centres unmarked) [CBK285940] | 83.0929
56 | CN(c1ncc(-c2ccccc2)cc1C(=O)NCc1cccnc1)S(C)(=O)=O [CBK076507] | 62.7727
57 | COc1ccc(C(=O)Nc2c(C)nn(C)c2N2CCNCC2)cc1 [CBK050306T] | 99.4959
58 | Cn1ccnc1C1(O)CCN(C(=O)Nc2ccccc2Cl)CC1 [CBK282278] | 65.0001
59 | CCC(CO)Nc1nccnc1-c1cccc(C(=O)N2CCN(C)CC2)c1 (centres unmarked) [CBK037087] | 133.735
60 | COc1ccc(-c2cccc(C3CCCN(C(=O)c4ccc(F)cc4)C3)n2)cc1 (centres unmarked) [CBK286107] | 101.451
61 | COc1cccc(-c2noc(C3CCN(CCc4ccc(F)cc4)CC3)n2)c1 [CBK051461] | 96.4123
62 | O=C(Nc1ccc(S(=O)(=O)Nc2ncccn2)cc1)c1cc([N+](=O)[O-])ccc1Cl [CBK263717] | 121.235
63 | O=C(CNC(=O)c1ccc(Br)cc1)NC1CCCC1 [CBK269591] | 99.3129
64 | O=C(NCc1ccco1)c1ccc(-c2ccoc2)nc1 [CBK156279] | 99.7082
65 | CCOC(=O)c1c(NC(=O)c2ccccc2C(=O)O)sc2c1CCCC2 [CBK116364] | 96.2712
66 | CC(C)c1nccn1-c1ccc(NC(=O)CCCn2ccnc2)cc1 [CBK281380] | 94.3997
67 | CCOC(=O)c1ccc(-c2nccnc2Oc2cccc(OC)c2)cc1 [CBK107115] | 94.248
68 | CS(=O)(=O)c1ccc(Cn2ccnc(N3CCC(Sc4ccccc4)CC3)c2=O)cc1 [CBK144444] | 87.1596
69 | O=C(CCn1cnc2ccccc21)NNC(=O)Nc1cccc(C(F)(F)F)c1 [CBK269093] | 99.7026
70 | Cc1nccn1CCNC(=O)c1cc(C2CCCCC2)no1 [CBK283295] | 107.778
71 | COc1cc(Cn2ncc(N3CCCCC3)cc2=O)cc(OC)c1 [CBK307662] | 95.9701
72 | Nc1nonc1-c1cccnc1 [CBK006120] | 92.0778
73 | O=C(O)CC1S/C(=N/N=C2/C(=O)Nc3ccccc32)N(c2ccc(O)cc2)C1=O (centres unmarked) [CBK263723] | 96.2767
74 | O=C(CCc1nc(-c2ccccc2F)no1)Nc1ccccc1[N+](=O)[O-] [CBK268341] | 99.8734
75 | CNS(=O)(=O)c1ccc2c(c1)CCN2C(=O)C1C2CCCCC21 (centres unmarked) [CBK281521] | 99.8195
76 | COc1cccc(C2CCCN2C(=O)CC2CCN(C(=O)CC3CCCCC3)CC2)c1 (centres unmarked) [CBK286264] | 99.9745
77 | CCCc1nc(CN2CCN(c3ccc4nncn4n3)CC2)cs1 [CBK305330] | 75.5424
78 | Nc1ncc(-c2ccc(Cl)cc2)nc1-c1ccc(N2CCOCC2)cc1 [CBK063953] | 81.9331
79 | CSc1nnc(CC2CCN(C(=O)c3cc(C)on3)CC2)n1C [CBK307481] | 74.8331
80 | Cc1ccc(-c2nn(CCC#N)cc2C(=O)N2CCOCC2)cc1 [CBK305939] | 7.542
